From patent publication US20220112270

Experiments:
[1] = target: plasma-derived human alpha 1-antitrypsin (AAT), P01009
[2] = target: recombinant human alpha 1-antitrypsin (AAT) derived from recombinant CHO cells

Sequence of plasma-derived human alpha 1-antitrypsin (AAT), P01009 (P01009 whole entry, looked up): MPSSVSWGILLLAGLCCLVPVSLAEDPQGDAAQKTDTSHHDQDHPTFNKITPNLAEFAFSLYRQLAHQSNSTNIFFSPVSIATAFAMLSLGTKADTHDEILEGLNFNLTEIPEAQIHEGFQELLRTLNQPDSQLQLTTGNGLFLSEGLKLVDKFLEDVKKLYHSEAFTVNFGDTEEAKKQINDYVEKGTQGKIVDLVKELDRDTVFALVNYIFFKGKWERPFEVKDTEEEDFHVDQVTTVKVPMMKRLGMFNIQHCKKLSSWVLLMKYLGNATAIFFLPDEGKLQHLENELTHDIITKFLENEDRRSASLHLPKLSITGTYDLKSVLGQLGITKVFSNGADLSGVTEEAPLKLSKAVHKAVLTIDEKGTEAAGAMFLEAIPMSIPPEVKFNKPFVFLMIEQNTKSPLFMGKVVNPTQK

B1: pancreatic elastase (E7885; Sigma Aldrich) (protein)
chain: VVGGTEAQRNSWPSQISLQYRSGSSWAHTCGGTLIRQNWVMTAAHCVDRELTFRVVVGEHNLNQNDGTEQYVGVQKIVVHPYWNTDDVAAGYDIALLRLAQSVTLNSYVQLGVLPRAGTILANNSPCYITGWGLTRTNGQLAQTLQQAYLPTVDYAICSSSSYWGSTVKNSMVCAGGDGVRSGCQGDSGGPLHCLVNGQYAVHGVTSFVSRLGCNVTRKPTVFTRVSAYISWINNVIASN
elastase activity (conversion of N-succinyl-Ala-Ala-Ala-p-nitroanilide, absorbance at 405 nm) [1]: in both cases of the presence of AAT elastase activity is reduced by about 50%
elastase activity (conversion of N-succinyl-Ala-Ala-Ala-p-nitroanilide, absorbance at 405 nm) [2]: in both cases of the presence of AAT elastase activity is reduced by about 50%
